Measurements taken from the supplement of paper PMC12217912.
This is one part of the list. The full chains were built here from the parent and the listed change. Values near 0.05 are background.

B1: TEV protease; numbered along this chain (parent)
chain: MGESLFKGPRDYNPISSSICHLTNESDGHTTSLYGIGFGPFIITNKHLFRRNNGTLVVQSLHGVFKVKDTTTLQQHLVDGRDMIIIRMPKDFPPFPQKLKFREPQREERICLVTTNFQTKSMSSMVSDTSCTFPSGDGIFWKHWIQTKDGQCGSPLVSTRDGFIVGIHSASNFTNTNNYFTSVPKNFMELLTNQEAQQWVSGWRLNADSVLWGGHKVFMVKPEEPFQPVKEATQL

Variants of: B1
Assay: raw area under fraction-flipped curve 0-4 h after induction (AUC4h, not background-subtracted), DNA-recorder readout of cleavage of the substrate (dimensionless); higher = more cleavage of the substrate by the protease variant
Settings: temperature: 34 °C; time window: 0-4 h after rhamnose induction
Experimental: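 In vivo DNA recorder in E. coli TOP10(DE3) ΔrhaA at 34 °C. Each TEVp single-site mutant (parent TEVp 0) is paired with a single-site variant of the 7-mer TEVs (canonical ENLYFQ|S). The substrate sits between flexible linkers in a Bxb1-sfGFP-TEVs-SsrA fusion, so cleavage stabilises Bxb1 and speeds flipping of a recombination array, read by NGS. The value is the raw area under the fraction-flipped curve over 0-4 h after rhamnose induction (AUC4h), with ≥20 reads per time point. It is not background-subtracted; inactive controls average about 0.047.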
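Note: Bxb1 expression induced with 0.2% (w/v) L-rhamnose at OD600 near 0.5, cultures sampled hourly, flipped fraction per protease–substrate barcode pair counted by paired-end Illumina sequencing.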

Variant | area with substrate ENLYFQA | area with substrate ENLYFQC | area with substrate ENLYFQD | area with substrate ENLYFQF | area with substrate ENLYFQG | area with substrate ENLYFQH | area with substrate ENLYFQI | area with substrate ENLYFQK | area with substrate ENLYFQL | area with substrate ENLYFQM | area with substrate ENLYFQN | area with substrate ENLYFQP | area with substrate ENLYFQR | area with substrate ENLYFQS | area with substrate ENLYFQT | area with substrate ENLYFQV | area with substrate ENLYFQW | area with substrate ENLYFQY | area with substrate ENLYFQE | area with substrate ENLYFQQ
P222F | 0.0817 | 0.102 | 0.0674 | 0.0672 | 0.0769 | 0.0728 | 0.0537 | 0.0749 | 0.0576 | 0.0724 | 0.0676 | 0.0517 | 0.0664 | 0.0827 | 0.0645 | 0.0637 | 0.0706 | 0.0641 | – | –
V217C | 0.0906 | – | 0.0628 | – | – | – | 0.0595 | 0.0543 | 0.0653 | 0.0746 | 0.0787 | – | 0.0608 | 0.0937 | 0.0599 | 0.0717 | 0.0602 | 0.0882 | 0.0544 | –
G202Q | 0.0639 | 0.0776 | 0.0603 | 0.0672 | – | – | 0.0617 | – | 0.0619 | 0.0622 | 0.0532 | 0.0515 | 0.0566 | 0.0704 | 0.0616 | 0.0519 | 0.0649 | 0.0532 | – | –
F226M | 0.082 | 0.117 | – | – | 0.0809 | 0.0765 | 0.0638 | 0.0752 | 0.0587 | 0.087 | 0.0769 | – | 0.0417 | 0.101 | – | – | 0.0698 | 0.0841 | – | –
F226H | 0.105 | 0.124 | 0.0775 | 0.0876 | 0.119 | 0.0936 | 0.0623 | – | 0.0619 | 0.0825 | 0.0887 | 0.0343 | 0.0529 | 0.111 | 0.0621 | – | 0.066 | 0.0767 | 0.0862 | 0.0839
F226N | 0.0958 | 0.0969 | 0.0769 | – | 0.0964 | 0.0883 | 0.0585 | 0.065 | 0.0613 | 0.124 | 0.0879 | – | 0.0489 | 0.112 | 0.0699 | – | 0.0681 | – | – | –
S17A | – | 0.117 | – | 0.0983 | 0.102 | – | 0.055 | 0.0615 | 0.0249 | 0.0968 | 0.0894 | 0.0563 | 0.0622 | 0.109 | 0.0569 | – | 0.0703 | – | – | 0.0865
L211Q | 0.121 | 0.147 | 0.0647 | – | 0.131 | – | 0.0561 | 0.0592 | 0.065 | 0.0912 | 0.102 | – | 0.062 | 0.103 | 0.0667 | – | 0.0727 | 0.0587 | – | –
K230C | 0.101 | 0.122 | 0.0642 | – | 0.0958 | – | – | 0.0668 | 0.0534 | 0.104 | 0.0748 | – | 0.0505 | 0.102 | 0.0662 | – | 0.0612 | – | – | 0.0652
K230D | 0.0874 | 0.133 | – | – | 0.109 | 0.08 | 0.0693 | 0.0712 | 0.055 | 0.09 | – | 0.0601 | – | 0.108 | – | – | 0.0879 | 0.108 | – | 0.0703
M219S | 0.0918 | 0.103 | 0.0624 | – | – | – | 0.0596 | 0.0655 | 0.0724 | 0.0671 | 0.0716 | – | 0.0576 | 0.0986 | 0.0553 | 0.0509 | 0.0634 | 0.0569 | – | –
P9F | – | 0.0637 | 0.0552 | 0.0718 | 0.0777 | – | 0.0615 | 0.0385 | 0.059 | 0.0826 | 0.0585 | 0.0689 | 0.0753 | 0.0651 | 0.0606 | – | – | 0.0304 | – | –
T23N | – | 0.0873 | 0.0721 | 0.0947 | 0.0734 | 0.0754 | 0.06 | 0.0572 | 0.0542 | – | 0.0762 | – | 0.0497 | 0.0937 | 0.0608 | – | 0.0706 | – | – | 0.0567
T23L | – | 0.101 | 0.0489 | – | 0.0905 | 0.0814 | – | 0.0555 | 0.0557 | 0.0691 | 0.0877 | 0.0466 | 0.0558 | 0.103 | 0.0615 | 0.0615 | 0.0674 | 0.0865 | – | 0.06
T23C | – | 0.105 | 0.0827 | 0.064 | 0.088 | 0.0749 | 0.0497 | 0.0544 | 0.0529 | 0.086 | – | 0.0557 | 0.0506 | 0.1 | 0.0681 | 0.0489 | – | 0.071 | 0.0693 | 0.0629
E223I | 0.0931 | 0.0885 | – | – | 0.0903 | 0.0631 | 0.0619 | – | – | – | 0.0657 | 0.0559 | 0.0598 | 0.0963 | 0.0605 | – | 0.0601 | 0.0648 | – | –
W203G | 0.056 | 0.0465 | – | – | 0.0746 | – | – | 0.0613 | 0.0583 | 0.0774 | 0.0519 | 0.0538 | 0.0637 | 0.062 | 0.0613 | 0.0521 | 0.047 | 0.0488 | – | –
W203N | 0.0684 | – | – | 0.0445 | 0.0476 | 0.0548 | 0.0537 | – | 0.0595 | 0.0506 | 0.0567 | 0.0708 | 0.0839 | 0.064 | 0.0572 | – | 0.0568 | 0.0632 | – | 0.0532
I15D | – | 0.0862 | 0.0613 | – | 0.076 | 0.0342 | 0.0428 | 0.0507 | 0.0494 | 0.0587 | 0.0321 | 0.052 | 0.0478 | 0.0751 | 0.0425 | 0.0535 | 0.0633 | – | 0.0332 | –
S209V | 0.109 | 0.106 | 0.0804 | – | 0.0983 | 0.0897 | – | 0.0735 | 0.0615 | 0.0871 | 0.0794 | – | – | 0.101 | 0.0686 | 0.0711 | – | – | – | –
E195K | 0.103 | 0.101 | 0.0774 | 0.0779 | 0.121 | – | 0.0463 | 0.0652 | 0.0527 | 0.0833 | 0.0734 | 0.0713 | 0.0566 | 0.0988 | 0.0624 | 0.0825 | 0.0639 | 0.0742 | 0.0917 | 0.0706
P14T | – | 0.122 | 0.0748 | – | 0.0921 | 0.0781 | 0.0568 | 0.0481 | 0.0677 | 0.0937 | 0.0807 | 0.065 | 0.0474 | 0.0986 | 0.0686 | 0.0534 | 0.0614 | 0.0949 | 0.061 | –
P14Y | – | 0.0954 | 0.0691 | 0.0538 | – | 0.0656 | 0.0588 | 0.0615 | 0.0662 | 0.0764 | 0.0725 | – | 0.0664 | 0.0882 | 0.0689 | 0.0594 | 0.0513 | – | – | –
